Results from EP0680950B1, “PROPENONE DERIVATIVES” (KYOWA HAKKO KOGYO CO., LTD., priority 1993, dated 1995).
The name of at least one read-out is uncertain.

Tested on: P388 mouse leukemia
Assay: Effect upon P388 Ascites Tumor (increased life span)
Type: in vivo
Details: P388 implanted into abdominal cavity of CDF1 mice; for ILS(%)[Dose (mg/kg)] five consec. admin.: consecutive 5 days from 24 hours after implantation; for ILS(%)[Dose (mg/kg)] single admin.: single admin. 24 hours after implantation

## COc1cc(C(=O)/C=C/c2c[nH]c3c(OC)c(OC)ccc23)cc(OC)c1OC [Compound 40, (E)-3-(6,7-Dimethoxyindol-3-yl)-1-(3,4,5-trimethoxyphenyl)-2-propen-1-one]
Dose 100 mg/kg
  ILS(%)[Dose (mg/kg)] five consec. admin.: 51 (100) %
Dose 50 mg/kg
  ILS(%)[Dose (mg/kg)] single admin.: 25 (50) %

## COc1cc(C(=O)/C(C)=C/c2c[nH]c3cc(C)ccc23)cc(OC)c1OC [Compound 63, (E)-2-Methyl-3-(6-methylindol-3-yl)-1-(3,4,5-trimethoxyphenyl)-2-propen-1-one]
Dose 1.25 mg/kg
  ILS(%)[Dose (mg/kg)] five consec. admin.: 54 (1.25) %
Dose 6.25 mg/kg
  ILS(%)[Dose (mg/kg)] single admin.: 48 (6.25) %

## COc1cc(C(=O)/C(C)=C/c2c[nH]c3ccccc23)cc(OC)c1OC [Compound 48, (E)-3-(Indol-3-yl)-2-methyl-1-(3,4,5-trimethoxyphenyl)-2-propen-1-one]
Dose 2.0 mg/kg
  ILS(%)[Dose (mg/kg)] five consec. admin.: 26 (2.0) %
Dose 25 mg/kg
  ILS(%)[Dose (mg/kg)] single admin.: 61 (25) %

## COc1cc(C(=O)/C=C/c2c[nH]c3ccccc23)cc(OC)c1OC [Compound 1, (E)-3-(Indol-3-yl)-1-(3,4,5-trimethoxyphenyl)-2-propen-1-one]
Dose 100 mg/kg
  ILS(%)[Dose (mg/kg)] five consec. admin.: 113(100) %
Dose 200 mg/kg
  ILS(%)[Dose (mg/kg)] single admin.: 94(200) %

## COc1cc(C(=O)/C=C/c2cn(C(=O)c3ccccc3)c3ccccc23)cc(OC)c1OC [Compound 8, (E)-3-(1-Benzoylindol-3-yl)-1-(3,4,5-trimethoxyphenyl)-2-propen-1-one]
Dose 100 mg/kg
  ILS(%)[Dose (mg/kg)] five consec. admin.: 75(100) %
  ILS(%)[Dose (mg/kg)] single admin.: 33(100) %

## CCC/C(=C\c1c[nH]c2ccccc12)C(=O)c1cc(OC)c(OC)c(OC)c1 [Compound 49, (E)-3-(Indol-3-yl)-2-propyl-1-(3,4,5-trimethoxyphenyl)-2-propen-1-one]
Dose 4.0 mg/kg
  ILS(%)[Dose (mg/kg)] five consec. admin.: 67 (4.0) %
Dose 50 mg/kg
  ILS(%)[Dose (mg/kg)] single admin.: 39 (50) %

## COc1cc(C(=O)/C=C/c2c[nH]c3cc(C)ccc23)cc(OC)c1OC [Compound 32, (E)-3-(6-Methylindol-3-yl)-1-(3,4,5-trimethoxyphenyl)-2-propen-1-one]
Dose 50 mg/kg
  ILS(%)[Dose (mg/kg)] five consec. admin.: 53(50) %
Dose 100 mg/kg
  ILS(%)[Dose (mg/kg)] single admin.: 44(100) %

## CCn1cc(/C=C/C(=O)c2cc(OC)c(OC)c(OC)c2)c2ccccc21 [Compound 3, (E)-3-(1-Ethylindol-3-yl)-1-(3,4,5-trimethoxyphenyl)-2-propen-1-one]
Dose 100 mg/kg
  ILS(%)[Dose (mg/kg)] five consec. admin.: 56(100) %
Dose 50 mg/kg
  ILS(%)[Dose (mg/kg)] single admin.: 35(50) %

## COc1ccc(C(=O)n2cc(/C=C/C(=O)c3cc(OC)c(OC)c(OC)c3)c3ccccc32)cc1 [Compound 51, (E)--3-[1-(4-Methoxybenzoyl)indol-3-yl]-1-(3,4,5-trimethoxyphenyl)-2-propen-1-one]
Dose 100 mg/kg
  ILS(%)[Dose (mg/kg)] five consec. admin.: 53 (100) %
Dose 200 mg/kg
  ILS(%)[Dose (mg/kg)] single admin.: 24 (200) %

## COc1cc(C(=O)/C=C/c2cn(C(=O)c3ccc(NC(C)=O)cc3)c3ccccc23)cc(OC)c1OC [Compound 56, (E)-3-[1-(4-Acetamidobenzoyl)indol-3-yl]-1-(3,4,5-trimethoxyphenyl)-2-propen-1-one]
Dose 100 mg/kg
  ILS(%)[Dose (mg/kg)] five consec. admin.: 51 (100) %
Dose 200 mg/kg
  ILS(%)[Dose (mg/kg)] single admin.: 13 (200) %
